The other results are listed elsewhere or left out.
Key:
Experiment in all cases: glycan array binding signal (z-score within array); higher = stronger binding
Conditions in all cases: glycan notation: IUPAC condensed, linker removed
Gal(b1-4)Glc6S = target: Gal(b1-4)Glc6S
Procedure, shortened: (§1)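 Negative Z-scores can be read as non-binding. The Z-score is calculated within each array and then averaged across arrays of one protein sequence at different concentrations or buffers and across linkers. Arrays, 3228 in all, were curated from the Consortium for Functional Glycomics database and kept only where the protein sequence was available.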

Gal(b1-4)GlcNAc = target: Gal(b1-4)GlcNAc
Procedure, shortened: as §1

[1] = target: Gal(b1-4)GlcNAc(a1-6)Gal(b1-4)GlcNAc
Procedure, shortened: as §1

Gal(b1-4)GlcNAc(b1-2)Man = target: Gal(b1-4)GlcNAc(b1-2)Man
Procedure, shortened: as §1

[2] = target: Gal(b1-4)GlcNAc(b1-2)Man(a1-3)Man(b1-4)GlcNAc(b1-4)GlcNAc
Procedure, shortened: as §1

[3] = target: Gal(b1-4)GlcNAc(b1-2)Man(a1-3)[Gal(b1-4)GlcNAc(b1-2)Man(a1-6)]Man(b1-4)GlcNAc(b1-4)GlcNAc
Procedure, shortened: as §1

[4] = target: Gal(b1-4)GlcNAc(b1-2)Man(a1-3)[Gal(b1-4)GlcNAc(b1-2)Man(a1-6)]Man(b1-4)GlcNAc(b1-4)[Fuc(a1-6)]GlcNAc
Procedure, shortened: as §1

[5] = target: Gal(b1-4)GlcNAc(b1-2)Man(a1-3)[Gal(b1-4)GlcNAc(b1-2)][GlcNAc(b1-4)]Man(b1-4)GlcNAc(b1-4)GlcNAc
Procedure, shortened: as §1

[6] = target: Gal(b1-4)GlcNAc(b1-2)Man(a1-3)[GlcNAc(b1-2)Man(a1-6)]Man(b1-4)GlcNAc(b1-4)GlcNAc
Procedure, shortened: as §1

[7] = target: Gal(b1-4)GlcNAc(b1-2)Man(a1-3)[Man(a1-6)]Man(b1-4)GlcNAc(b1-4)GlcNAc
Procedure, shortened: as §1

[8] = target: Gal(b1-4)GlcNAc(b1-2)Man(a1-6)Man(b1-4)GlcNAc(b1-4)GlcNAc
Procedure, shortened: as §1

[9] = target: Gal(b1-4)GlcNAc(b1-2)Man(a1-6)[GlcNAc(b1-2)Man(a1-3)]Man(b1-4)GlcNAc(b1-4)GlcNAc
Procedure, shortened: as §1

[10] = target: Gal(b1-4)GlcNAc(b1-2)Man(a1-6)[Man(a1-3)]Man(b1-4)GlcNAc(b1-4)GlcNAc
Procedure, shortened: as §1

[11] = target: Gal(b1-4)GlcNAc(b1-2)[Gal(b1-4)GlcNAc(b1-4)]Man(a1-3)[Gal(b1-4)GlcNAc(b1-2)Man(a1-6)]Man(b1-4)GlcNAc(b1-4)GlcNAc
Procedure, shortened: as §1

[12] = target: Gal(b1-4)GlcNAc(b1-2)[Gal(b1-4)GlcNAc(b1-4)]Man(a1-3)[Gal(b1-4)GlcNAc(b1-2)[Gal(b1-4)GlcNAc(b1-6)]Man(a1-6)]Man(b1-4)GlcNAc(b1-4)GlcNAc
Procedure, shortened: as §1

[13] = target: Gal(b1-4)GlcNAc(b1-2)[Gal(b1-4)GlcNAc(b1-4)]Man(a1-3)[GlcNAc(b1-4)][Gal(b1-4)GlcNAc(b1-2)Man(a1-6)]Man(b1-4)GlcNAc(b1-4)GlcNAc
Procedure, shortened: as §1

[14] = target: Gal(b1-4)GlcNAc(b1-2)[Gal(b1-4)GlcNAc(b1-4)]Man(a1-3)[GlcNAc(b1-4)][Gal(b1-4)GlcNAc(b1-2)[Gal(b1-4)GlcNAc(b1-6)]Man(a1-6)]Man(b1-4)GlcNAc(b1-4)GlcNAc
Procedure, shortened: as §1

[15] = target: Gal(b1-4)GlcNAc(b1-2)[Gal(b1-4)GlcNAc(b1-4)]Man(a1-3)[GlcNAc(b1-4)][Gal(b1-4)GlcNAc(b1-2)[Gal(b1-4)GlcNAc(b1-6)]Man(a1-6)]Man(b1-4)GlcNAc(b1-4)[Fuc(a1-6)]GlcNAc
Procedure, shortened: as §1

[16] = target: Gal(b1-4)GlcNAc(b1-2)[Gal(b1-4)GlcNAc(b1-6)]Man(a1-6)[Gal(b1-4)GlcNAc(b1-2)Man(a1-3)]Man(b1-4)GlcNAc(b1-4)GlcNAc
Procedure, shortened: as §1

[17] = target: Gal(b1-4)GlcNAc(b1-2)[Gal(b1-4)GlcNAc(b1-6)]Man(a1-6)[Gal(b1-4)GlcNAc(b1-2)Man(a1-3)]Man(b1-4)GlcNAc(b1-4)[Fuc(a1-6)]GlcNAc
Procedure, shortened: as §1

[18] = target: Gal(b1-4)GlcNAc(b1-2)[Gal(b1-4)GlcNAc(b1-6)]Man(a1-6)[GlcNAc(b1-4)][Gal(b1-4)GlcNAc(b1-2)Man(a1-3)]Man(b1-4)GlcNAc(b1-4)GlcNAc
Procedure, shortened: as §1

[19] = target: Gal(b1-4)GlcNAc(b1-3)Gal(b1-3)GlcNAc
Procedure, shortened: as §1

[20] = target: Gal(b1-4)GlcNAc(b1-3)Gal(b1-4)Glc
Procedure, shortened: as §1

[21] = target: Gal(b1-4)GlcNAc(b1-3)Gal(b1-4)GlcNAc
Procedure, shortened: as §1

[22] = target: Gal(b1-4)GlcNAc(b1-3)Gal(b1-4)GlcNAc(b1-3)Gal(b1-4)GlcNAc
Procedure, shortened: as §1

[23] = target: Gal(b1-4)GlcNAc(b1-3)Gal(b1-4)[Fuc(a1-3)GlcNAc(b1-6)]Gal(b1-4)Glc
Procedure, shortened: as §1

[24] = target: Gal(b1-4)GlcNAc(b1-3)Gal(b1-4)[Fuc(a1-3)]GlcNAc(b1-3)Gal(b1-4)[Fuc(a1-3)]GlcNAc
Procedure, shortened: as §1

[25] = target: Gal(b1-4)GlcNAc(b1-3)GalNAc
Procedure, shortened: as §1

[26] = target: Gal(b1-4)GlcNAc(b1-3)[Gal(b1-4)GlcNAc(b1-6)]Gal(b1-4)GlcNAc
Procedure, shortened: as §1

[27] = target: Gal(b1-4)GlcNAc(b1-3)[Gal(b1-4)GlcNAc(b1-6)]GalNAc
Procedure, shortened: as §1

[28] = target: Gal(b1-4)GlcNAc(b1-3)[GlcNAc(b1-6)]Gal(b1-4)GlcNAc
Procedure, shortened: as §1

[29] = target: Gal(b1-4)GlcNAc(b1-6)Gal(b1-4)GlcNAc
Procedure, shortened: as §1

[30] = target: Gal(b1-4)GlcNAc(b1-6)GalNAc
Procedure, shortened: as §1

[31] = target: Gal(b1-4)GlcNAc(b1-6)[Gal(b1-3)]GalNAc
Procedure, shortened: as §1

Gal(b1-4)GlcNAc6P = target: Gal(b1-4)GlcNAc6P
Procedure, shortened: as §1

Gal(b1-6)Gal = target: Gal(b1-6)Gal
Procedure, shortened: as §1

Gal3S(b1-3)GalNAc = target: Gal3S(b1-3)GalNAc
Procedure, shortened: as §1

Gal3S(b1-3)GlcNAc = target: Gal3S(b1-3)GlcNAc
Procedure, shortened: as §1

[32] = target: Gal3S(b1-3)[Fuc(a1-4)]GlcNAc
Procedure, shortened: as §1

Gal3S(b1-4)Glc = target: Gal3S(b1-4)Glc
Procedure, shortened: as §1

Gal3S(b1-4)Glc6S = target: Gal3S(b1-4)Glc6S
Procedure, shortened: as §1

Gal3S(b1-4)GlcNAc = target: Gal3S(b1-4)GlcNAc
Procedure, shortened: as §1

Gal3S(b1-4)GlcNAc6S = target: Gal3S(b1-4)GlcNAc6S
Procedure, shortened: as §1

[33] = target: Gal3S(b1-4)[Fuc(a1-3)]Glc
Procedure, shortened: as §1

[34] = target: Gal3S(b1-4)[Fuc(a1-3)]Glc6S
Procedure, shortened: as §1

B1: CCL1 (Coprinopsis cinerea) (protein)
chain: MDTQAKPPAGRYVIYNRVLSPNGEKLALTYPGYQREALTLTPLHHSANQIWILNNWDATTSSLTPETARNTQVGWGSGNVPIVLPPGNYVWTLASSAGGYIIQDGGKTVYWNAGEAVANTKVSIGGDNGLQARWIFERV
Gal(b1-4)Glc6S
  glycan array binding signal (z-score): -0.123
Gal(b1-4)GlcNAc
  glycan array binding signal (z-score): -0.162
[1]
  glycan array binding signal (z-score): -0.156
Gal(b1-4)GlcNAc(b1-2)Man
  glycan array binding signal (z-score): -0.167
[2]
  glycan array binding signal (z-score): -0.138
[3]
  glycan array binding signal (z-score): -0.138
[4]
  glycan array binding signal (z-score): -0.134
[5]
  glycan array binding signal (z-score): -0.109
[6]
  glycan array binding signal (z-score): -0.106
[7]
  glycan array binding signal (z-score): -0.13
[8]
  glycan array binding signal (z-score): -0.133
[9]
  glycan array binding signal (z-score): -0.109
[10]
  glycan array binding signal (z-score): -0.16
[11]
  glycan array binding signal (z-score): -0.129
[12]
  glycan array binding signal (z-score): -0.13
[13]
  glycan array binding signal (z-score): -0.16
[14]
  glycan array binding signal (z-score): -0.13
[15]
  glycan array binding signal (z-score): -0.127
[16]
  glycan array binding signal (z-score): -0.131
[17]
  glycan array binding signal (z-score): -0.143
[18]
  glycan array binding signal (z-score): -0.142
[19]
  glycan array binding signal (z-score): -0.146
[20]
  glycan array binding signal (z-score): -0.173
[21]
  glycan array binding signal (z-score): -0.171
[22]
  glycan array binding signal (z-score): -0.151
[23]
  glycan array binding signal (z-score): 0.62
[24]
  glycan array binding signal (z-score): 1.12
[25]
  glycan array binding signal (z-score): -0.14
[26]
  glycan array binding signal (z-score): -0.166
[27]
  glycan array binding signal (z-score): -0.153
[28]
  glycan array binding signal (z-score): -0.159
[29]
  glycan array binding signal (z-score): -0.154
[30]
  glycan array binding signal (z-score): -0.142
[31]
  glycan array binding signal (z-score): -0.154
Gal(b1-4)GlcNAc6P
  glycan array binding signal (z-score): -0.151
Gal(b1-6)Gal
  glycan array binding signal (z-score): -0.137
Gal3S(b1-3)GalNAc
  glycan array binding signal (z-score): -0.152
Gal3S(b1-3)GlcNAc
  glycan array binding signal (z-score): -0.121
[32]
  glycan array binding signal (z-score): -0.116
Gal3S(b1-4)Glc
  glycan array binding signal (z-score): -0.14
Gal3S(b1-4)Glc6S
  glycan array binding signal (z-score): -0.083
Gal3S(b1-4)GlcNAc
  glycan array binding signal (z-score): -0.123
Gal3S(b1-4)GlcNAc6S
  glycan array binding signal (z-score): -0.062
[33]
  glycan array binding signal (z-score): -0.13
[34]
  glycan array binding signal (z-score): -0.075
